The supplement of paper PMC3334620
The full ranking holds about 33,000 sequences; the median of “E-score (-0.5 to 0.5)” is about -0.054, and the highest 2% start at about 0.39. Some of the results follow.

Target: Ylr278c (UniProt Q05854)
Experiment: PBM E-score (8-mer binding enrichment) (E-score (-0.5 to 0.5)); higher = stronger / more preferred TF binding; most listed sequences are background and not binding sites
Conditions: protein concentration: 200 nM; construct: GST-DNA-binding domain
How it was run: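 GST-tagged yeast TFs (full-length or DNA-binding domain) were made by PURExpress in vitro transcription/translation and applied at about 100-200 nM to universal all-10-mer Agilent arrays. The arrays were made double-stranded by primer extension, on fresh or once-stripped slides. Bound protein was detected with fluorescent anti-GST, and scans were normalised with masliner. Each ungapped eight-base word, pooled with its reverse complement, received an E-score (modified Wilcoxon-Mann-Whitney statistic) from the Universal PBM Analysis Suite.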

Row | Sequence | PBM E-score
1 | ACTTGTCC | 0.241
2 | ATTAGCGA | 0.0162
3 | ATTACATC | 0.00427
4 | AGATAAGG | -0.18
5 | AGGTATAT | -0.194
6 | ACAAGCCT | -0.309
7 | TAGTGACA | -0.157
8 | GGTAGCTA | -0.2
9 | GTCTGCAA | -0.0552
10 | AGGGGATC | -0.0127
11 | ATTGTCAG | -0.127
12 | AGCGACCC | -0.00942
13 | GAGAGACA | -0.092
14 | CGTAATCC | 0.311
15 | ACTGTACC | 0.0291
16 | AGCCGCAG | -0.00466
17 | AGGTTAAA | -0.142
18 | CGAGGGCG | 0.159
19 | ACACAGAC | -0.0906
20 | ATATATGG | -0.0699
21 | ACCATATC | -0.0317
22 | CAGCTTGA | -0.0487
23 | AGTCTAAG | 0.0345
24 | AGTACATA | 0.00559
25 | GCAGTTCC | 0.169

Row | Sequence | PBM E-score
26 | ATTCTCAA | -0.137
27 | CCTCGTCA | -0.0218
28 | ACTCAGTG | -0.283
29 | CTAGTTGA | -0.115
30 | CCCTGTAA | 0.00487
31 | AAAAAGCT | -0.198
32 | CTCACTAC | -0.0966
33 | AATTAGAG | -0.114
34 | GGCCGACC | 0.183
35 | TATGCAAA | -0.281
36 | AAATGCTA | -0.0122
37 | AGAATATA | -0.128
38 | AACGGGCA | -0.0928
39 | AATGCATC | -0.189
40 | ACGATTCA | -0.129
41 | AGGGTAAT | -0.0218
42 | CGCTCCCC | -0.0655
43 | TCCTCAAA | -0.165
44 | GATTGGAA | -0.0736
45 | AAGTCATA | -0.123
46 | GATACTAA | 0.201
47 | AGAGGGGA | -0.126
48 | GTCTCACA | -0.173
49 | AACCGGCG | 0.361
50 | GCAACCGC | -0.0395

Row | Sequence | PBM E-score
51 | ATGGAAAG | -0.0576
52 | ACGCAAGA | -0.152
53 | ACAGGTTG | -0.226
54 | CCGTTTCA | 0.134
55 | CCACGCTA | -0.252
56 | CAGTGTCA | -0.162
57 | CTCTACGA | -0.355
58 | TACATAGA | -0.173
59 | AGCCTCCG | 0.381
60 | GAAACACA | 0.039
61 | GACCCATC | 0.0825
62 | CGCGGAAA | 0.378
63 | CAGCGACA | -0.212
64 | CTGCTGCA | -0.153
65 | CGCAGAAC | 0.00027
66 | CATTTCGG | 0.226
67 | ACGGATAA | 0.293
68 | CCACTTCC | 0.0941
69 | AGTTTGAC | -0.0378
70 | ATCAAGAC | -0.00757
71 | AGTCCTGG | -0.203
72 | AACTTTGA | -0.129
73 | AGGAAAGA | -0.261
74 | ACCCGTCG | -0.0266
75 | CGCATCTC | 0.124

Row | Sequence | PBM E-score
76 | AGCACTCG | 0.0828
77 | CAAAGATG | -0.0597
78 | TCCTCGCA | 0.0362
79 | CCATCCTC | 0.145
80 | CCGTCCAG | 0.0496
81 | TAACGCAA | -0.0984
82 | CCGCGTAG | 0.166
83 | GCTAAGCC | 0.0306
84 | GTGCCATA | -0.319
85 | GATGATGC | -0.14
86 | GGATACTA | 0.0919
87 | ACACAGGC | -0.209
88 | GAACGTTA | 0.0074
89 | AAGAGTGG | -0.121
90 | GATCCCCC | -0.0852
91 | GGAACCAA | 0.0593
92 | CACGGTAA | 0.106
93 | GGTCTAGA | -0.27
94 | CATTACGG | -0.00182
95 | GCGCATAC | 0.0687
96 | CTCCCCAA | 0.108
97 | AATTATTA | 0.0546
98 | CTCCTCAA | -0.0756
99 | CGCTAGCC | -0.0385
100 | GTTCCCAA | -0.109

Row | Sequence | PBM E-score
101 | CCGATATA | 0.304
102 | ACGTCTAA | -0.136
103 | CCTTTTCG | 0.0881
104 | ATCTAAAG | -0.122
105 | CCGTTCAG | 0.132
106 | AGTTGCCG | 0.171
107 | CTTAGGCC | -0.018
108 | CGCAACAC | 0.111
109 | GCGCAACC | 0.0421
110 | CACATGTA | -0.11
111 | CCCAGTTA | -0.124
112 | ACCGCCCG | 0.313
113 | CTGTATTA | -0.141
114 | AGTCTCAT | -0.0897
115 | CGTTGGTA | 0.126
116 | GACTTTGA | -0.12
117 | CCCAGTGA | -0.162
118 | ATAATATC | -0.0834
119 | AAGTCGGG | 0.16
120 | CTCGACAC | -0.131
121 | CTAGGGAA | -0.0217
122 | CTATTGGA | 0.00078
123 | CCGTAGGC | 0.0321
124 | GACAGCCC | 0.0122
125 | ACATGCAC | -0.183

Row | Sequence | PBM E-score
126 | GGATAGTA | 0.106
127 | CTGATTAC | -0.0571
128 | GTCACCGA | -0.0039
129 | TATTAGCA | -0.0864
130 | GGTCGATA | -0.0601
131 | CGACTCCA | -0.0167
132 | GAGATGAC | -0.0626
133 | CCCCATCG | 0.152
134 | CGGACATA | 0.454
135 | ATACGGCC | 0.0231
136 | GCCAAATA | -0.0295
137 | GTGGTGCA | -0.0509
138 | GCCGATCC | 0.278
139 | CCATCTGC | 0.0533
140 | AACCAGAC | -0.332
141 | AGTGCAAC | -0.155
142 | AAACGCAA | 0.0307
143 | GTGCTCGA | 0.0346
144 | GTGTGGTA | -0.165
145 | CGCAATAC | 0.0448
146 | GAGCATCC | 0.0825
147 | CTACGCAA | -0.215
148 | CCTAGCAG | -0.268
149 | GTTGGTTA | -0.0961
150 | AGTCTTAT | -0.0837

Row | Sequence | PBM E-score
151 | AGTTTACG | -0.0241
152 | AGTGATGG | -0.275
153 | CACCTGGG | -0.248
154 | AGCCACGA | -0.131
155 | TAGAAAAA | -0.0496
156 | AACTATGA | -0.193
157 | GAACGTCC | 0.133
158 | CCATCGAC | -0.14
159 | ATGGTAAC | -0.08
160 | AGGATAAC | -0.309
161 | ATCGATAC | -0.015
162 | AGGCCATA | -0.0972
163 | ACTTAGTG | -0.185
164 | GCCACGTA | -0.289
165 | GGGAAATA | 0.0851
166 | CTATCTGC | -0.0296
167 | CCCGCAGC | 0.264
168 | CAACGGCA | -0.0393
169 | GGCAGTTA | -0.0735
170 | GATCGCAA | -0.0462
171 | CATGCTTC | -0.181
172 | CGCGGTCC | 0.366
173 | AAATGAAC | -0.192
174 | GACAGATA | -0.0608
175 | GTCATTAA | 0.102

Row | Sequence | PBM E-score
176 | CAGCTACG | -0.338
177 | GGCCAGAA | -0.0354
178 | CGCTTCGA | 0.0323
179 | CAGACGAA | 0.149
180 | CGAGCAAA | 0.093
181 | AAACCGCG | 0.273
182 | CCGAGATA | 0.243
183 | ACAACAAA | -0.133
184 | CCTCGGCA | 0.25
185 | CTCTGGAA | -0.22
186 | ACTACTTA | -0.0798
187 | TCCCGGGA | 0.398
188 | AAGCACCG | 0.04
189 | ATAGGGAT | -0.0391
190 | CACTGGAC | -0.0735
191 | GCGCCTGA | 0.00147
192 | GCGAGGAC | -0.116
193 | CGACGGAA | 0.339
194 | GTCACAAC | -0.0361
195 | AGTTCATA | -0.0477
196 | CTTGCTTC | -0.176
197 | CCCCTAGA | -0.272
198 | AGAAATCA | 0.0265
199 | CCACACAC | 0.114
200 | AACGCGCG | 0.22

Row | Sequence | PBM E-score
201 | CTCCGGAC | 0.477
202 | ACCGAGGC | -0.144
203 | GACGGTCA | -0.138
204 | GGTCTCGA | 0.0953
205 | ATGGAAAT | 0.0565
206 | GGCAGCGA | 0.0771
207 | GGGATACA | 0.0595
208 | ATTCGATG | -0.216
209 | ATCGCTCA | -0.217
210 | CATAGGTA | -0.273
211 | ATTTGAGC | -0.102
212 | ACAGCCCA | -0.2
213 | CGATGCAA | 0.183
214 | CCGACCGG | 0.383
215 | ATGACATA | -0.174
216 | AGTGTGCA | -0.11
217 | CAAGACGA | -0.0476
218 | ACGTTGAT | -0.207
219 | CTGGCGGC | 0.207
